The text below walks through data of publication PMC9911399, “Two distinct binding modes provide the RNA-binding protein RbFox with extraordinary sequence specificity”.

Where a chain is given by its changes, count along the chain named. The list shows a part of the results.

T1: RBFOX1 RRM (Homo sapiens, UniProt Q9NWB1 109-208)
T1 sequence: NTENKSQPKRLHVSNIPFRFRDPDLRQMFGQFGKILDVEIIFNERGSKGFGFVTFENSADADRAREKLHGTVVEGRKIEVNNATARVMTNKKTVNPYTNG

B1: UCCACCG (DNA:RNA)
RNA: GGGAGACCGGAAUUCAGAUUGUCCUCCACCGUUAAAUCCCGUCGUAGCCACCA
DNA 1: CAATCTGAATTCCGGTCTCCC
DNA 2: TGGTGGCTACGACGGGATT
B2: UGGAACG (DNA:RNA)
RNA: B1 RNA with C26G, C27G, C29A
DNA 1: CAATCTGAATTCCGGTCTCCC
DNA 2: TGGTGGCTACGACGGGATT
B3: AAGUGUC (DNA:RNA)
RNA: GGGAGACCGGAAUUCAGAUUGUCCAAGUGUCUUAAAUCCCGUCGUAGCCACCA
DNA 1: CAATCTGAATTCCGGTCTCCC
DNA 2: TGGTGGCTACGACGGGATT
B4: CCCGGCC (DNA:RNA)
RNA: B1 RNA with U25C, A28G, C29G, G31C
DNA 1: CAATCTGAATTCCGGTCTCCC
DNA 2: TGGTGGCTACGACGGGATT
B5: ACCAUGG (DNA:RNA)
RNA: B1 RNA with U25A, C29U, C30G
DNA 1: CAATCTGAATTCCGGTCTCCC
DNA 2: TGGTGGCTACGACGGGATT
B6: CGCCCGG (DNA:RNA)
RNA: B1 RNA with U25C, C26G, A28C, C30G
DNA 1: CAATCTGAATTCCGGTCTCCC
DNA 2: TGGTGGCTACGACGGGATT
B7: GCAUGGA (DNA:RNA)
RNA: B3 RNA with A25G, A26C, G27A, U30G, C31A
DNA 1: CAATCTGAATTCCGGTCTCCC
DNA 2: TGGTGGCTACGACGGGATT
B8: CUCUGCA (DNA:RNA)
RNA: B3 RNA with A25C, A26U, G27C, U30C, C31A
DNA 1: CAATCTGAATTCCGGTCTCCC
DNA 2: TGGTGGCTACGACGGGATT
B9: UUCGGGU (DNA:RNA)
RNA: B1 RNA with C26U, A28G, C29G, C30G, G31U
DNA 1: CAATCTGAATTCCGGTCTCCC
DNA 2: TGGTGGCTACGACGGGATT
B10: ACCAGUU (DNA:RNA)
RNA: B3 RNA with A26C, G27C, U28A, C31U
DNA 1: CAATCTGAATTCCGGTCTCCC
DNA 2: TGGTGGCTACGACGGGATT
B11: AUCACGC (DNA:RNA)
RNA: B1 RNA with U25A, C26U, C30G, G31C
DNA 1: CAATCTGAATTCCGGTCTCCC
DNA 2: TGGTGGCTACGACGGGATT
B12: UACGACG (DNA:RNA)
RNA: B1 RNA with C26A, A28G, C29A
DNA 1: CAATCTGAATTCCGGTCTCCC
DNA 2: TGGTGGCTACGACGGGATT
B13: CGCUUGG (DNA:RNA)
RNA: B1 RNA with U25C, C26G, A28U, C29U, C30G
DNA 1: CAATCTGAATTCCGGTCTCCC
DNA 2: TGGTGGCTACGACGGGATT
B14: UCCAUAC (DNA:RNA)
RNA: B1 RNA with C29U, C30A, G31C
DNA 1: CAATCTGAATTCCGGTCTCCC
DNA 2: TGGTGGCTACGACGGGATT
B15: AGGGUGU (DNA:RNA)
RNA: B3 RNA with A26G, U28G, G29U, U30G, C31U
DNA 1: CAATCTGAATTCCGGTCTCCC
DNA 2: TGGTGGCTACGACGGGATT
B16: GUCCGCU (DNA:RNA)
RNA: B1 RNA with U25G, C26U, A28C, C29G, G31U
DNA 1: CAATCTGAATTCCGGTCTCCC
DNA 2: TGGTGGCTACGACGGGATT
B17: AGCGGAC (DNA:RNA)
RNA: B3 RNA with A26G, G27C, U28G, U30A
DNA 1: CAATCTGAATTCCGGTCTCCC
DNA 2: TGGTGGCTACGACGGGATT
B18: AGGGAUG (DNA:RNA)
RNA: B3 RNA with A26G, U28G, G29A, C31G
DNA 1: CAATCTGAATTCCGGTCTCCC
DNA 2: TGGTGGCTACGACGGGATT
B19: AGGCCAU (DNA:RNA)
RNA: B3 RNA with A26G, U28C, G29C, U30A, C31U
DNA 1: CAATCTGAATTCCGGTCTCCC
DNA 2: TGGTGGCTACGACGGGATT
B20: CUGAAGG (DNA:RNA)
RNA: B1 RNA with U25C, C26U, C27G, C29A, C30G
DNA 1: CAATCTGAATTCCGGTCTCCC
DNA 2: TGGTGGCTACGACGGGATT
B21: AUUAUUU (DNA:RNA)
RNA: B3 RNA with A26U, G27U, U28A, G29U, C31U
DNA 1: CAATCTGAATTCCGGTCTCCC
DNA 2: TGGTGGCTACGACGGGATT
B22: GCUUUGC (DNA:RNA)
RNA: B3 RNA with A25G, A26C, G27U, G29U, U30G
DNA 1: CAATCTGAATTCCGGTCTCCC
DNA 2: TGGTGGCTACGACGGGATT
B23: AAAUUUU (DNA:RNA)
RNA: B3 RNA with G27A, G29U, C31U
DNA 1: CAATCTGAATTCCGGTCTCCC
DNA 2: TGGTGGCTACGACGGGATT
B24: UAAAGUA (DNA:RNA)
RNA: B3 RNA with A25U, G27A, U28A, C31A
DNA 1: CAATCTGAATTCCGGTCTCCC
DNA 2: TGGTGGCTACGACGGGATT
B25: GAGGAAA (DNA:RNA)
RNA: B3 RNA with A25G, U28G, G29A, U30A, C31A
DNA 1: CAATCTGAATTCCGGTCTCCC
DNA 2: TGGTGGCTACGACGGGATT
B26: AUCCAGG (DNA:RNA)
RNA: B1 RNA with U25A, C26U, A28C, C29A, C30G
DNA 1: CAATCTGAATTCCGGTCTCCC
DNA 2: TGGTGGCTACGACGGGATT
B27: AUCGGGU (DNA:RNA)
RNA: B3 RNA with A26U, G27C, U28G, U30G, C31U
DNA 1: CAATCTGAATTCCGGTCTCCC
DNA 2: TGGTGGCTACGACGGGATT
B28: CACACCG (DNA:RNA)
RNA: B1 RNA with U25C, C26A
DNA 1: CAATCTGAATTCCGGTCTCCC
DNA 2: TGGTGGCTACGACGGGATT
B29: CACGAAU (DNA:RNA)
RNA: B3 RNA with A25C, G27C, U28G, G29A, U30A, C31U
DNA 1: CAATCTGAATTCCGGTCTCCC
DNA 2: TGGTGGCTACGACGGGATT
B30: GGGGACC (DNA:RNA)
RNA: B3 RNA with A25G, A26G, U28G, G29A, U30C
DNA 1: CAATCTGAATTCCGGTCTCCC
DNA 2: TGGTGGCTACGACGGGATT
B31: UCGUGGG (DNA:RNA)
RNA: B3 RNA with A25U, A26C, U30G, C31G
DNA 1: CAATCTGAATTCCGGTCTCCC
DNA 2: TGGTGGCTACGACGGGATT

The target in this experiment is T1, RBFOX1 RRM. In words: EMSA; HiTS-Eq, 1 nM pool, 10 min; buffer printed only for the single-RNA assays: 10 mM Tris pH 7.5, 150 mM NaCl, 3.4 mM EDTA, 0.001% NP-40, 30 C. Particulars: tags: His6 N-terminal (pET28a); label: 5' 32P. In a few lines:
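A pool of RNA with 7 randomized nucleotides, 5′-radiolabelled and with DNA-annealed flanks, was equilibrated at 1 nM for 10 min in 50 µL with purified RbFox RRM, wild type or mutant, across increasing protein concentrations. Free RNA was separated by 8% native PAGE, excised, reverse-transcribed, barcoded by PCR and sequenced. Relative association constants were obtained from read-count changes of each RNA species versus the control reaction and normalised to the cognate motif.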
For B1, the binding signal was 0.000901 KA relative to UGCAUGU.

For the molecule B2, the binding signal is 0.0367 KA relative to UGCAUGU.

For the molecule B3, the binding signal was 0.0153 KA relative to UGCAUGU.

Take B4: the binding signal was 0.0171 KA relative to UGCAUGU.

With B5, the binding signal is 0.00726 KA relative to UGCAUGU.

Take B6: the binding signal is 0.0262 KA relative to UGCAUGU.

B7: the binding signal was 0.0333 KA relative to UGCAUGU.

Regarding B8, the binding signal is 0.0148 KA relative to UGCAUGU.

Turning to B9, the binding signal was 0.00202 KA relative to UGCAUGU.

With B10, the binding signal was 0.0033 KA relative to UGCAUGU.

Turning to B11, the binding signal was 0.0047 KA relative to UGCAUGU.

With B12, the binding signal was 0.00278 KA relative to UGCAUGU.

B13: the binding signal was 0.0206 KA relative to UGCAUGU.

As to B14, the binding signal is 0.00023 KA relative to UGCAUGU.

For the molecule B15, the binding signal is 0.0213 KA relative to UGCAUGU.

As for B16, the binding signal is 0.0113 KA relative to UGCAUGU.

With B17, the binding signal was 0.00564 KA relative to UGCAUGU.

With B18, the binding signal is 0.0215 KA relative to UGCAUGU.

As for B19, the binding signal is 0.00538 KA relative to UGCAUGU.

With B20, the binding signal was 0.0159 KA relative to UGCAUGU.

In the case of B21, the binding signal was 0.00195 KA relative to UGCAUGU.

Turning to B22, the binding signal was 0.0232 KA relative to UGCAUGU.

For B23, the binding signal is 0.00354 KA relative to UGCAUGU.

In the case of B24, the binding signal is 0.00856 KA relative to UGCAUGU.

As to B25, the binding signal was 0.0102 KA relative to UGCAUGU.

Consider B26, for which the binding signal is 0.00478 KA relative to UGCAUGU.

For the molecule B27, the binding signal is 0.00996 KA relative to UGCAUGU.

B28: the binding signal was 0.000533 KA relative to UGCAUGU.

For B29, the binding signal was 0.00257 KA relative to UGCAUGU.

With B30, the binding signal was 0.0295 KA relative to UGCAUGU.

For B31, the binding signal was 0.0118 KA relative to UGCAUGU.
